Source: PubChem BioAssay AID624417 (National Center for Advancing Translational Sciences (NCATS), 2012)
About 6,400 (1.6%) of roughly 410,000 compounds were called active. The shares of active, inactive and inconclusive entries below differ from those in the screen. The call rests on the fitted dose curve; in most records, active means well fitted inhibition curve with a large enough effect; inconclusive means small, poorly fitted or top-dose-only effect; inactive means no such curve, though single readings can be large or run the other way. Potencies of inconclusive entries are doubtful fits and often do not repeat.

Target: Glucagon-like peptide 1 receptor (Homo sapiens) (UniProt P43220)
Experiment: qHTS of GLP-1 Receptor Inverse Agonists (Inhibition Mode); further: nearly all actives have a fitted effect of over 55% in size
Details: HEK293 GLP-1R CRE-luciferase, luminescence, 24 h, GLP-1R form is constitutively active; activity change, negative = inhibition: at 38.3 µM (top of the series) unless noted
Summary of the method: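 qHTS in 1536-well format: reporter HEK293 cells expressing constitutive GLP-1R activity in DMEM + 10% Nu serum, 24 hr with compounds at 37 deg C, luminescence read after 12 min with detection reagent.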
On the % scale 0 is the no-effect control and ±100 the full control effect; potency means the concentration at half of the fitted maximal effect; tags describe the fitted curve by direction and shape.

Sequence of UniProt P43220 (P43220 whole entry, looked up): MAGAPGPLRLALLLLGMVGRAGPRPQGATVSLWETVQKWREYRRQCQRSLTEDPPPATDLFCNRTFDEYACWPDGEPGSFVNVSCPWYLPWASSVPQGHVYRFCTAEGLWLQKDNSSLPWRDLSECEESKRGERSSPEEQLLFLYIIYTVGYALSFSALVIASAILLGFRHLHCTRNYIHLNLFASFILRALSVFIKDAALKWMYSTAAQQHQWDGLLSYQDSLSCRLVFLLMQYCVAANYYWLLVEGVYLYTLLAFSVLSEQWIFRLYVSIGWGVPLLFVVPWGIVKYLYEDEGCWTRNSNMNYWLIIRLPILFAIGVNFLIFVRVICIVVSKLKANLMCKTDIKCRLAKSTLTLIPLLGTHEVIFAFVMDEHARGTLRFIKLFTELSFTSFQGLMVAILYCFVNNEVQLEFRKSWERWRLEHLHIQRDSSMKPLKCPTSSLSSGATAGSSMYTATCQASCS

Activity change, negative = inhibition, inactive:
COCCNc1ncnc2c1ncn2[C@H]1CN(CCN2CCOCC2)C[C@@H](CO)O1 17.3%, O=C1c2ccccc2NC(c2cccs2)N1NS(=O)(=O)c1ccccc1 (stereo not drawn) -35.3%, Cc1ccc(N2NC(=O)/C(=C\c3cc4c(cc3[N+](=O)[O-])OCO4)C2=O)cc1C 4.37%, CCOC(=O)c1cc2cc(OC)ccc2[nH]1 1.68%, CC1=C(C(=O)Nc2cccnc2)C(c2ccc(F)cc2)n2nc(SCc3ccccc3F)nc2N1 (stereo not drawn) 2.76%, CCN(C(=O)c1cc2c(Cl)nc3ccccc3c2s1)c1cccc(Cl)c1 -8.46%, CC(C)(C)C(=O)c1c(N)[nH]c(C(=O)c2ccccc2)c1-c1ccc(F)cc1 -9.81%, CCn1nc(NC(=O)CC(C)C)c2cc3cccc(C)c3nc21 -1.43%, C#CCOCCOCCOCCNc1nc(N2CCOCC2)nc(N2CCN(C(=O)[C@H](CCCCN)n3cc(CCCC)nn3)CC2)n1 6.04%, Cn1nnc2cc(C(=O)Nc3ccccc3)ccc21 -8.36%, Cc1cccc(NC(=O)C(=O)NCC(c2ccc3c(c2)OCO3)N2CCOCC2)c1C (stereo not drawn) -27.6%, Cc1cn2c(=O)cc(COC(=O)c3cccc(NC(=O)COc4ccccc4Cl)c3)nc2s1 8.72%, CC(C)CCNC(=O)CCCN1C(=O)c2ccccc2Sc2ncccc21 -0.835%, O=C(CCn1c(=O)oc2ccccc21)N1CCN(c2ccccc2F)CC1 -2.76%, Cc1ccccc1CN1CCN(C(=O)c2ccco2)CC1 -23.4%, COc1cccc(NC(=O)CSc2nc3c(oc4ccccc43)c(=O)n2Cc2ccco2)c1 -20.6%

Potency, active:
COc1ccc(OC2CCN(S(=O)(=O)c3ccc(OC)cc3)CC2)cc1 10 µM

Potency, inconclusive:
Cc1noc(C)c1C(=O)OCC(=O)Nc1cc(Cl)ccc1Oc1ccccc1 11.2 µM [inhibitor, partial curve, poor fit], CN1/C(=C\C=C2/SC(=S)NC2=O)C(C)(C)c2ccccc21 14.1 µM [inhibitor, partial curve, poor fit], CCCC(=O)N(CCN1CCOCC1)c1nc2c(OC)ccc(C)c2s1 28.2 µM [inhibitor, single point], CCOC(=O)N1CCc2c(sc(NCc3ccc(OCC)cc3)c2C(=O)Nc2ccc(OC)cc2OC)C1 28.2 µM [inhibitor, single point], Cc1ccc(CNC(=O)c2ccc(Cn3nc(C)cc3C)o2)cc1 10 µM [inhibitor, partial curve, poor fit], C#CCn1cc(/C=N/Nc2nc3ccccc3[nH]2)c2ccccc21 20 µM [inhibitor, single point], COC(=O)c1ccc(Cl)c(NC(=O)CN(c2ccccc2)S(=O)(=O)c2ccc(OC)cc2)c1 10 µM [inhibitor, partial curve, poor fit], COc1cc(NC(=O)CN(C)S(=O)(=O)c2ccc3[nH]c4c(c3c2)CCCC4)cc(OC)c1OC 28.2 µM [inhibitor, single point], CCN(CC)S(=O)(=O)c1ccc(N2CCCCC2)c(NC(=O)C2CSC3(C)CCC(=O)N23)c1 (stereo not drawn) 22.4 µM [inhibitor, single point], O=C(COc1ccccc1-c1ccccc1)N/N=C/c1cccnc1 7.08 µM [inhibitor, partial curve, poor fit], CC(/C=N/N1CCN(Cc2ccccc2)CC1)=C\c1ccccc1 31.6 µM [inhibitor, partial curve, poor fit], O=S(=O)(Nc1ccccc1Cl)c1cc(NC(=S)NCCN2CCOCC2)ccc1Cl 28.2 µM [inhibitor, single point], COc1ccc(C(CNC(=O)c2cccc(S(=O)(=O)N3CCCC(C)C3)c2)N(C)C)cc1 (stereo not drawn) 28.2 µM [inhibitor, single point], O=C(NCC1CCCO1)C(c1ccc(F)cc1)N(C(=O)Cn1nnc(-c2ccc(F)cc2)n1)c1cccc(O)c1 (stereo not drawn) 0.891 µM [inhibitor, partial curve, poor fit], COc1ccc(C(CNC(=O)COc2ccccc2C)N2CCCC2)cc1 (stereo not drawn) 2.82 µM [inhibitor, partial curve, poor fit], O=C(OCc1ccccc1)N1CCC2CC1c1ccc(N3CCN(Cc4ccc5c(c4)OCO5)CC3)cc12 (stereo not drawn) 28.2 µM [inhibitor, single point], CCCc1nn2c(=O)cc(CSCC(=O)Nc3cccc(C)c3)nc2s1 28.2 µM [inhibitor, single point], Cc1ccc(C)c(OCCCNC2CCCC2)c1C 3.55 µM [inhibitor, partial curve, poor fit], CCC(C(=O)OCC(=O)NCc1ccc2c(c1)OCO2)c1ccccc1 (stereo not drawn) 12.6 µM [inhibitor, single point], C=CCNCCCCOc1ccccc1-c1ccccc1 7.94 µM [inhibitor, partial curve, poor fit], O=S(=O)(c1ccccc1C(F)(F)F)N1CCN(CC(O)COc2ccccc2F)CC1 (stereo not drawn) 0.891 µM [inhibitor, full curve, poor fit], CCOc1ccc(-n2c(Cc3ccccc3)nnc2SCc2nc(-c3ccccc3OC)no2)cc1 11.2 µM [inhibitor, single point], CC(C)Cn1c(O)c(/C=C2\C=NN=C2c2ccccc2)sc1=S 15.8 µM [inhibitor, single point], CCOC(=O)[C@]12CCCC=C1N(Cc1ccc(Cl)cc1Cl)C(=O)[C@H](CC(=O)NCCCCc1ccccc1)C2 28.2 µM [inhibitor, single point], Cc1ccc(Cl)cc1N1CCN(C(=O)c2cnc(N3CCOCC3)c3ccccc23)CC1 12.6 µM [inhibitor, single point], Cc1ccc(C)c(-c2ccc(=O)n(Cc3cccc(Br)c3)n2)c1 10 µM [inhibitor, partial curve, poor fit], CN(c1ccccc1)S(=O)(=O)c1cccc(NC(=O)c2ccc(Cl)c([N+](=O)[O-])c2)c1 10 µM [inhibitor, single point], O=C(Nc1cccs1)Nc1cc(C(F)(F)F)ccc1Cl 14.1 µM [inhibitor, partial curve, poor fit], COc1ccccc1CCNC(=O)CCSc1nc(-c2ccco2)cc(C(F)(F)F)n1 10 µM [inhibitor, single point], CC(C)Cn1cnc2c1c(=O)n(CC(O)c1ccccc1)c(=O)n2CC(C)C (stereo not drawn) 28.2 µM [inhibitor, single point], CCC1=Nc2cc(C(=O)NCC3CCCO3)ccc2Sc2ccc(Br)cc21 (stereo not drawn) 7.08 µM [inhibitor, partial curve, poor fit], COc1cc(OC)cc(C(=O)Oc2c(Sc3ccccc3)c(C)nn2C(C)(C)C)c1 22.4 µM [inhibitor, single point], CCc1ccc(C2c3c(-c4ccccc4O)n[nH]c3C(=O)N2Cc2ccncc2)cc1 (stereo not drawn) 15.8 µM [inhibitor, partial curve, poor fit], COc1ccccc1[C@@H]1C(c2ccccc2)=NN(c2ccccc2)[C@H]1C(=O)N1CCOC1=O 11.2 µM [inhibitor, partial curve], COc1cccc(C(=O)N2CCN(Cc3ccccc3Br)CC2)c1 7.94 µM [inhibitor, partial curve, poor fit], NNC(=O)c1ccc(COc2cccc3ccccc23)o1 10 µM [inhibitor, partial curve, poor fit], O=C(c1ccc(C(F)(F)F)cc1)N1CCC(=O)N(C(COCc2ccc(Cl)cc2)Cc2ccccc2)CC1 (stereo not drawn) 11.2 µM [inhibitor, single point], CCc1nc2ccccc2c(=O)n1NCCc1ccccc1 25.1 µM [inhibitor, single point], CC1=CC(C)(C)N2C(=O)C3(NCCc4c3[nH]c3ccccc43)c3cccc1c32 (stereo not drawn) 7.08 µM [inhibitor, partial curve], O=C(CCSc1nc(-c2ccco2)cc(C(F)(F)F)n1)Nc1cccc(O)c1 11.2 µM [inhibitor, partial curve], COc1cccc(Nc2ncnc3ccc(Br)cc23)c1 11.2 µM [inhibitor, single point], O=C(NCC(=O)N1CCN(S(=O)(=O)c2ccccc2F)CC1)c1ccc2ccccc2c1 28.2 µM [inhibitor, single point], Cc1ccc2c(C)c(C(=O)N3CCN(c4ccncc4)CC3)oc2c1C 2.24 µM [inhibitor, partial curve, poor fit], Fc1ccc(NC(=S)Nc2cc(-c3ccccc3)[nH]n2)cc1Cl 8.91 µM [inhibitor, partial curve, poor fit], O=C(CCCOc1ccccc1)NC(=S)Nc1ccccc1 28.2 µM [inhibitor, single point], Cc1ccc(N(CC(=O)NCCc2ccc(Cl)cc2)S(=O)(=O)N(C)C)cc1 28.2 µM [inhibitor, single point]
